Hit rate of the full screen: of about 310,000 compounds, about 2,200 (0.71%) showed an effect of 50% or more. Effects have a minus sign here. The list shows a part of the results.
molecular target: human ether-à-go-go-related gene (hERG) potassium channel (human, UniProt Q12809); test: primary screen, population patch clamp on CHO cells stably expressing hERG
Sequence (Q12809 whole entry, looked up): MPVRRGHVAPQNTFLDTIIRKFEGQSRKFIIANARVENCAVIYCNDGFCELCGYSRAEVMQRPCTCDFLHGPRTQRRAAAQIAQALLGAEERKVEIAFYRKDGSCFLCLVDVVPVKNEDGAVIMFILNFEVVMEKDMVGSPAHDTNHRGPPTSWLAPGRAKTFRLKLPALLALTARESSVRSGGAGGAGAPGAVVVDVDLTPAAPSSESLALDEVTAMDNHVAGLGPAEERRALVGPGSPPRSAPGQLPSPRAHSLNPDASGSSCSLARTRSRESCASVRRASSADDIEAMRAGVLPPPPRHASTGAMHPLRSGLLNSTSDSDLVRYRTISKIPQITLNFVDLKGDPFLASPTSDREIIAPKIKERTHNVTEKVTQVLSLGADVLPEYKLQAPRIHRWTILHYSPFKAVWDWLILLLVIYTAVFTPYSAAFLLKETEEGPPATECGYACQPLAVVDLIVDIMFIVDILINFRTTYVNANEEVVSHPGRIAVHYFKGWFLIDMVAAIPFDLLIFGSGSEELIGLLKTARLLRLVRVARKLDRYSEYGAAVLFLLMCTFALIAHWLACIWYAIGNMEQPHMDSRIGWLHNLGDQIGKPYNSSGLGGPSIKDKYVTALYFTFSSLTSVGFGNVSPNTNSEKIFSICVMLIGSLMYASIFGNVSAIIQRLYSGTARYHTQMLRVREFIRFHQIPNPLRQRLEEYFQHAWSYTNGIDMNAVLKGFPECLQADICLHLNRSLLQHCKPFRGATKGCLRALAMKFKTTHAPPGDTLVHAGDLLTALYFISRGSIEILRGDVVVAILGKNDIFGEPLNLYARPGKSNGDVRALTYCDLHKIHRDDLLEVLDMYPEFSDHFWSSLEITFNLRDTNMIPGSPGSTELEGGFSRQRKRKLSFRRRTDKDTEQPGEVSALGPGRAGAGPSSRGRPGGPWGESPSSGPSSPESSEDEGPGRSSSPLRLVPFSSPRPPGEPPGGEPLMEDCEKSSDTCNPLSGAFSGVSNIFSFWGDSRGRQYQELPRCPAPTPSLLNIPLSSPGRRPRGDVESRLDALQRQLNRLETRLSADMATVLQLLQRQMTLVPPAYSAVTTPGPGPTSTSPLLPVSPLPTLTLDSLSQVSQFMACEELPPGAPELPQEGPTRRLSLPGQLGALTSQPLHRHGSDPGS

Compound | hERG current change (%, negative = inhibition) at 1uM
Cc1ccc2cc(CCNC(=O)c3cccc([N+](=O)[O-])c3)c(=O)[nH]c2c1 | 4.13%
CCOc1ccc(OCc2ccc(C(=O)NCC3CCCO3)o2)cc1 (stereo not shown) | 7.5%
O=C(C(=O)N1CCN(c2ccccc2Cl)CC1)c1c[nH]c2ccccc12 | 15.9%
COCCNC(=O)[C@@]1(Cc2ccccc2)C=C[C@@H](C)N1C(C)=O | 9.59%
O=C(COc1ccc(Br)cc1)N1CCOCC1 | 7.32%
COc1ccc(OC)c(/C(O)=C/C(=O)C(=O)Nc2cc(C)cc(C)c2)c1 | 9.27%
Cc1ccc(CNC(=O)Cc2ccc(-c3ccccc3)cc2)cc1 | -6.67%
O=C(CCn1cnc(-c2ccccc2)c1-c1ccccc1)N/N=C/c1ccccc1O | 9.24%
COc1ccc(C2C(C#N)=C(N)N(c3ccccc3C#N)C3=C2C(=O)CCC3)cc1CN1CCCC1 (stereo not shown) | 10.2%
CCOc1ccc(-c2nnn(CC(=O)NCc3ccc(C)cc3)n2)cc1 | 15.8%
Cc1cnc(C)c(N2CCN(Cc3nc(-c4ccccc4)no3)CC2)n1 | 9.35%
Fc1ccccc1NC(=S)NCCc1ccc(Cl)cc1 | 15.6%
Cc1nccc2[nH]c(=O)c(C(=O)NC3CCCCC3C)cc12 (stereo not shown) | 12.2%
COc1ccc(CCC(=O)N2CCN(c3ccccc3)CC2)cc1OC | 13.5%
CCc1noc(C)c1C(=O)NNC(=O)c1nn(C)c(=O)c2ccccc12 | -12.2%
O=C(NS(=O)(=O)Oc1ccccc1F)OC[C@@H]1CCCN2CCCCC12 (stereo partly shown) | 19.2%
O=S(=O)(NCc1ccccc1)c1ccc(S(=O)(=O)N(Cc2cccs2)CC2CCCO2)cc1 (stereo not shown) | 10.8%
COc1cccc2c1Oc1ncccc1N(C(=O)CCC(=O)NCc1ccc(F)cc1)C2 | 15.5%
Cc1ccc(N(CC(=O)NCC2CCCO2)C(=O)CCC(=O)Nc2ccccn2)cc1C (stereo not shown) | 4.97%
CC(=O)c1c(C)[nH]c(C2=NNC(=NC(C)(C)C)SC2)c1C | 21.5%
Cc1[nH]c2ccccc2c1/C=C(\C#N)C(=O)NC(C)c1ccccc1 (stereo not shown) | 17.3%
O=C(CSc1nnc(-c2cccc(Br)c2)o1)N1CCOCC1 | 16.7%

Compound | hERG current change (%, negative = inhibition) at 1uM
COc1cc(C=C2C(=O)c3ccccc3C2=O)cc(OC)c1 | 14.7%
COc1cc(NC(=O)c2sc3ncn(CC(=O)N4CCCC(C)C4)c(=O)c3c2C)cc(OC)c1OC (stereo not shown) | 23%
Cc1oc(-c2ccccc2F)nc1CS(=O)CC(=O)NCc1ccc2c(c1)OCO2 (stereo not shown) | 1.79%
Cc1ccnc(SCc2cc(=O)c(OC(=O)c3ccc(Cl)c([N+](=O)[O-])c3)co2)n1 | 2.7%
Cc1onc(-c2ccccc2Cl)c1C(=O)Oc1cc(N)n(S(=O)(=O)c2ccc(F)cc2)n1 | 1.76%
NS(=O)(=O)c1cc2c(cc1Cl)NC(CSCc1ccccc1)=NS2(=O)=O | 16.7%
COc1ccc(N2CCN(C(c3ccccc3)c3sc4nc(C)nn4c3O)CC2)cc1 (stereo not shown) | -3.28%
O=C(NNC(=O)c1ccccc1Cl)c1ccc2c(=O)n3c(nc2c1)CCC3 | 7.44%
COc1ccc(NC(=O)C2CCC(CNc3c(N4CCCCC4)c(=O)c3=O)CC2)cc1OC (stereo not shown) | 1.14%
C/C=C(\C)C(=O)Nc1cccc(C2=NOC3(C2)C[C@@H](C(N)=O)N(C(=O)/C(C)=C/C)C3)c1 (stereo partly shown) | 2.6%
CCOC(=O)N1CCN(C(=O)c2cc(S(=O)(=O)N3CCCC3)cn2C)CC1 | -0.48%
COc1ccc(NC(=O)c2ccc(NC(=O)c3ccco3)cc2)c(OC)c1 | 14.5%
O=c1ccc2c(-c3ccccc3)c3ccc(O)cc3oc-2c1 | 12.2%
CCOc1ccc(S(=O)(=O)Nc2nc3ccccc3nc2Cl)cc1 | -1.69%
O=C1NC(=O)C(CCc2ccncc2)(c2ccccc2)C(=O)N1 | 12.5%
O=C(COC(=O)CSc1cc(Cl)ccc1Cl)NCc1ccc2c(c1)OCO2 | 14.9%
Cc1cc(S(=O)(=O)N2CCN(c3ncccn3)CC2)ccc1-n1cnnn1 | 11.1%
Cn1nc(C(=O)NNC(=O)CCc2ccccc2Cl)c2ccccc2c1=O | -3.08%
O=C(CSc1nc2ccccc2c(=O)[nH]1)N1CCN(S(=O)(=O)c2ccccc2)CC1 | 4.66%
CS(=O)(=O)c1nc(-c2ccccc2)c(-c2ccccc2)[nH]1 | 14.6%
CCOC(=O)C1/C(=N\O)CC(C)(O)C(C(=O)OCC)C1c1ccc(OC)c(OC)c1 (stereo not shown) | 3.01%
CCCS(=O)(=O)n1nc(-c2ccc(Br)cc2)cc1N | 17.4%

Compound | hERG current change (%, negative = inhibition) at 1uM
Cc1ccc(SCC(=O)OCC(=O)N(C)C2CCS(=O)(=O)C2)cc1C (stereo not shown) | 3.61%
CCOC(=O)N1CCN(C(=O)CSc2ccc3nnc(CCNC(=O)c4ccc(OC)cc4)n3n2)CC1 | 0.711%
Cc1ccc(C)c(OCCC(=O)OCC(=O)Nc2cc(S(=O)(=O)N3CCOCC3)ccc2C)c1 | 11.9%
Cc1ccc(C(C)C)c(OCC(=O)N/N=C/C2CCCCC2)c1 | 0.408%
CCOC(=O)C1C(=O)CC(C)(O)C(C(=O)OCC)C1c1ccc(F)cc1 (stereo not shown) | 14%
COc1cc(C(Nc2ccc(S(=O)(=O)NCC3CCCO3)cc2)C(=O)NC(C)(C)C)cc(OC)c1OC (stereo not shown) | 18.1%
COc1ccc(C(c2c(C)[nH]n(-c3ccccc3)c2=O)c2c(C)[nH]n(-c3ccccc3)c2=O)cc1OC | 0.003%
COc1cccc(CNc2ccc3[nH]c(=O)[nH]c3c2)c1OCc1ccccc1F | 16.3%
O=C(c1cccc(S(=O)(=O)N2CCc3ccccc32)c1)N1CCc2ccccc2C1 | -4.56%
CCc1ccc(N2CC(C(=O)Nc3cc(C)on3)CC2=O)cc1 (stereo not shown) | -1.36%
COC(=O)c1cc(-c2ccc(OC)cc2)n[nH]1 | 5.3%
COc1ccc(-c2csc3nc(-c4ccccc4F)oc(=O)c23)cc1OC | -3.84%
C/C(=N\Nc1nc(C)cc(C)n1)c1ccc(N2CCOCC2)cc1 | 3.89%
CCn1c2ccccc2c2cc(NC(=O)CSc3nnc(-c4ccccc4OC)n3N)ccc21 | 5.65%
Cc1cc(=O)n(Cc2ccc(OC(C)C)cc2)c(=S)[nH]1 | 6.81%
O=C(CN1CCc2cc3c(cc2C1)OCCCO3)Nc1cccc([N+](=O)[O-])c1 | 3.58%
FC(F)(F)C(F)(F)C(F)(F)c1nnc2ccc(N3CCOCC3)nn12 | 6.45%
O=C(Nc1nc2c(s1)CN(Cc1ccccc1)CC2)C1CCCC1 | 3.35%
C=C(C)COc1ccc(-c2ncncc2-c2ccccc2OC)c(O)c1 | 10.2%
Cc1csc(CNc2ncnc3ccc(-c4ccc5c(c4)OCCO5)cc23)c1 | 13.1%
O=c1[nH]c(=O)n(Cc2ccc(F)cc2)c(O)c1/C=N/Nc1ccccc1 | 11.2%
CCOC(=O)/C(C#N)=C/c1ccc(N2CCCCC2)cc1 | 2.88%

Compound | hERG current change (%, negative = inhibition) at 1uM
CCNc1ccc(P(=S)(N(C)C)N(C)C)cc1 | 9.35%
CCOC(=O)C1CCCN(C(=O)c2cc(=O)c3ccccc3o2)C1 (stereo not shown) | 11.1%
O=C(NC1(N2CCOCC2)CC1)c1ccc(Cl)cc1 | 9.48%
CC(C)NC(=O)CCc1nnc(Cc2cccc(C(F)(F)F)c2)o1 | -1.28%
CC(C)(C)c1ccc(CS(=O)CC(O)CO)cc1 (stereo not shown) | 14.2%
CS(=O)(=O)N(CC(=O)Nc1cc(Cl)ccc1Cl)c1ccccc1 | -5.45%
CCOC(=O)c1ccc(NC(=O)C2(c3ccccc3)CCCC2)cc1 | -20.6%
CCOCCCNC(=O)c1ccc(CS(=O)(=O)Cc2ccc(C)cc2)o1 | 5.38%
C/C(=N\NC(=O)COc1ccc(C(C)(C)C)cc1)c1cc2ccccc2o1 | 0.79%
CCn1c(NC(=O)c2ccccc2F)c(-c2cccs2)c(=O)c2ccccc21 | 4.56%
CCOC(=O)C1=C(N)OC2=C(C(=O)CC(C)C2)C1c1cccnc1 (stereo not shown) | 16.2%
Cc1ccccc1NC(=O)Cn1cnc2c1c(=O)n(C)c(=O)n2C | 9.32%
COCCN(C(=O)CSc1nnc(C)n1-c1ccc(C)cc1)c1c(N)n(Cc2ccccc2)c(=O)[nH]c1=O | 9.76%
COc1cccc(-n2c(O)c(C=NCCN3CCNCC3)c(=O)[nH]c2=S)c1 | 7.28%
Cc1nc2c(C)cccn2c(=O)c1NC(=O)c1cccc2ccccc12 | 12.1%
O=C(NCc1ccco1)C(c1ccccc1)N(C(=O)Cc1cccs1)c1ccccc1 (stereo not shown) | 16.4%
O=P(O)(CCc1ccncc1)CN1CCCCC1 | 21.2%
Cc1oc2c(C)c3oc(=O)c(CCC(=O)O)c(C)c3cc2c1-c1ccccc1 | 14.2%
CN1C(=O)N(c2nnc(C(C)(C)C)s2)C(=O)C1c1ccccc1 (stereo not shown) | 14.2%

— PMC4336329 (PLoS ONE, 2015)
